Results reported in US20070004634A1 (Novo Nordisk A/S, priority 1998, published 2007).
Where two headings read alike, the source gives them in different places. Part of at least one peptide drawing is inferred or uncertain, most often the ends. For some assays here: At least one structure is not confirmed: it was looked up by name or label, or the drawing left a doubt. Positions of bridges follow the written chain, without caps; N, C: chain ends. No end group written: not given here.

Columns and labels:
[1] = molecular target: T1, human insulin receptor (HIR) (Homo sapiens, UniProt P06213); experiment: Insulin receptor binding, competition with 125I-labeled insulin (HIR Kd)
T1 construct: made in house

[2] = tested on: free fat cells (adipocytes); experiment: Adipocyte / free fat cell (FFC) assay, 3H glucose incorporation into lipid
IGF-1R = IGF-1R (Homo sapiens, UniProt P08069); experiment: TR-FRET competition with biotinylated-20E2 for rhIGF-1R; details: for binding to IGF-1R compared with IR, in words: TR-FRET (rhIGF-1R, b-20E2) versus FP (sIR-Fc), summary of Table 22
[3] = molecular target: T2, soluble human insulin receptor-immunoglobulin heavy chain chimera (sIR-Fc) (Homo sapiens, UniProt P06213); experiment: Fluorescence polarization, competition with FITC-RP9 for sIR-Fc; type: binding; details: for potency / affinity at IR, in words: FP with FITC-RP9, summary of Table 22; for Bndg Ratio IGF-1R/IR: higher values indicated higher affinity for IR than IGF-1R
T2 construct: replacing the transmembrane domain and the intracellular domain of IR with constant domains from immunoglobulin Fc or λ subunits; made in house; host or cells: human embryonic kidney 293 cells (Bass et al.)

[4] = FFC assay potency grade, 0, + to ++++++, −
[5] = human insulin receptor binding affinity, Table 7
[6] = free fat cell assay potency class, Table 7

T2 sequence (P06213 28-758 limits assumed, stated change not applied): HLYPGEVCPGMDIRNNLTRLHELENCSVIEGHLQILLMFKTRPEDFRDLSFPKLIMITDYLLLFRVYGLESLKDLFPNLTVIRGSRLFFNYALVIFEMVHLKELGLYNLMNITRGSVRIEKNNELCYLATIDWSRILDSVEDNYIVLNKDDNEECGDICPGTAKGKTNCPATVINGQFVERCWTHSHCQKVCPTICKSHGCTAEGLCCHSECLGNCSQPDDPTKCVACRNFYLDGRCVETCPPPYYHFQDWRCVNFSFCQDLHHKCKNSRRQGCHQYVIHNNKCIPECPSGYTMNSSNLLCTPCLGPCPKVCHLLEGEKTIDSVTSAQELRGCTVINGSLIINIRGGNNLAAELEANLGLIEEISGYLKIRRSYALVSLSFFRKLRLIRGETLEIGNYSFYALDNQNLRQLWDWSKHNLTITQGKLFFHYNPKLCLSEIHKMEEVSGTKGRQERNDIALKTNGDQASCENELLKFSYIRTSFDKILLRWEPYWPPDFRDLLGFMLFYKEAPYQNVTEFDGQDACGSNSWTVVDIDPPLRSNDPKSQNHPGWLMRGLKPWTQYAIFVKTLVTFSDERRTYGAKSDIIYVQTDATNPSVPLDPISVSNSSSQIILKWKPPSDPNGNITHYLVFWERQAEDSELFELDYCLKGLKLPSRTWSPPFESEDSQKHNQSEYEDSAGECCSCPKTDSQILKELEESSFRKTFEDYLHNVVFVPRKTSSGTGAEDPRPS
T2 sequence (P06213 763-956 limits assumed, stated change not applied): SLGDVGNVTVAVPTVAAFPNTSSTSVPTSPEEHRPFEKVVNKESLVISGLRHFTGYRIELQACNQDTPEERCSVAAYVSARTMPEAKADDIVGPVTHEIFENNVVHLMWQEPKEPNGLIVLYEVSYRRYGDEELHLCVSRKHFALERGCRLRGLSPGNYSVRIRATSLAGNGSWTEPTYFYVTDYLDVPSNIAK
T1 sequence (P06213 28-758 limits assumed): as the sequence (P06213 28-758 limits assumed, stated change not applied) above
T1 sequence (P06213 763-1382 limits assumed): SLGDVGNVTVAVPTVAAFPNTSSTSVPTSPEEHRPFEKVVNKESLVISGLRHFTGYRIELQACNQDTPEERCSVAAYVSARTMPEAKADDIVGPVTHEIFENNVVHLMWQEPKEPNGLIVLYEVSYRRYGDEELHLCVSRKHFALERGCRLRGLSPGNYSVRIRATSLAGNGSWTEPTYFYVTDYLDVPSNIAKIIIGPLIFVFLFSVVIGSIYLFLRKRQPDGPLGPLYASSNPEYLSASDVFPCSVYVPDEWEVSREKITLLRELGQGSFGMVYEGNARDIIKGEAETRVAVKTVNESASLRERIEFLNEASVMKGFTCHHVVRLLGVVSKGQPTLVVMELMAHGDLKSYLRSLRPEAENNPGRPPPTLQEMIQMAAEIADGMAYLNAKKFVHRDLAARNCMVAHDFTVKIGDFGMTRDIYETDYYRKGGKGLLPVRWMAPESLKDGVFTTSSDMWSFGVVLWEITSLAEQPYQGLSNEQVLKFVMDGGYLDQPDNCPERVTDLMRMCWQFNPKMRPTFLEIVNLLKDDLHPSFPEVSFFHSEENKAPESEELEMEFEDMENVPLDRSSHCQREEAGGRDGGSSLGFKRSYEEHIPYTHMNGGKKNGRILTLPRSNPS
UniProt P08069, sequence (P08069 31-736 limits assumed): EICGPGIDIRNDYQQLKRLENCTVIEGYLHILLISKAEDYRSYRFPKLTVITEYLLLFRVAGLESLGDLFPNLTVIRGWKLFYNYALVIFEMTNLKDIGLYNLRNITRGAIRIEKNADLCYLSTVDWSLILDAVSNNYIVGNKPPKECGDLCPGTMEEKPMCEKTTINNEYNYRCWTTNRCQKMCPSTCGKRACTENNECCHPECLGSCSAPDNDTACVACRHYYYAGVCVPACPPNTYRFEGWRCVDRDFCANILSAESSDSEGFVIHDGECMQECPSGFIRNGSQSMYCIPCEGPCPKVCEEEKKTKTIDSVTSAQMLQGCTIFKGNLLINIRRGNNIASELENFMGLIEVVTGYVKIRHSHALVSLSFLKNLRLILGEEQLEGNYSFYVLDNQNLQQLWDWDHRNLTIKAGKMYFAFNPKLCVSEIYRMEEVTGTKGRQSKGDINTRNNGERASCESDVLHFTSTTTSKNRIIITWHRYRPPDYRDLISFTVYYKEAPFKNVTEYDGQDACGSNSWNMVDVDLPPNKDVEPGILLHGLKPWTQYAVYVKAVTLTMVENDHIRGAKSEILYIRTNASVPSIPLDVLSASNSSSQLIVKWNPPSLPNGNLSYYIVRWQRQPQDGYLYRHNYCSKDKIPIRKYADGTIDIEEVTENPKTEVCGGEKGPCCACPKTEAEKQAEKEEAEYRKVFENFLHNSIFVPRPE
UniProt P08069, sequence (P08069 741-935 limits assumed): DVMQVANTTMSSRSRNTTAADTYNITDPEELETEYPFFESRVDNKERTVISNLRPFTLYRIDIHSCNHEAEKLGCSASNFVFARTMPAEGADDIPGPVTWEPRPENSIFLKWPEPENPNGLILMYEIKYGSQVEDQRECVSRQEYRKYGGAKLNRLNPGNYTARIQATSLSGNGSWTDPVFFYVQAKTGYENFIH

Compound RGTRSDPFYHKLSELLQGH [Peptide S368] has a Kd ([1]; synthetic peptides, Table 7) of over 20000 nM and an FFC [2, 4] of 0.

Work on DLWFNAKEDMNFYDWFVWQLR [Peptide S342] yielded a Kd ([1]; synthetic peptides, Table 7) of 1800 nM and an FFC [2, 4] of 0.

For PPWGARFYDAIEQLVFDNL [RP4], the “binding to IGF-1R compared with IR, in words” value (IGF-1R) was “high binding ratios for IGF-1R over IR”, the “potency / affinity at IR, in words” value [3] was “high affinities for IR” and the “Bndg Ratio IGF-1R/IR” value [3] was 476.

CC(C)C[C@H](NC(=O)[C@H](CCC(N)=O)NC(=O)[C@H](CCCNC(=N)N)NC(=O)[C@H](CCC(=O)O)NC(=O)[C@H](Cc1ccccc1)NC(=O)[C@H](Cc1c[nH]c2ccccc12)NC(=O)[C@H](CC(=O)O)NC(=O)[C@H](Cc1ccc(O)cc1)NC(=O)[C@H](Cc1ccccc1)NC(=O)[C@H](CO)NC(=O)[C@H](CCC(=O)O)NC(=O)[C@H](CC(=O)O)NC(=O)[C@H](CC(C)C)NC(=O)[C@H](CO)NC(=O)CNC(=O)[C@@H](N)CO)C(=O)NCC(=O)N[C@@H](CCCCN)C(=O)N[C@@H](CCCCN)C(=O)O [Peptide S372] was tested, and the Kd ([1]; synthetic peptides, Table 7) was 200 nM and the FFC [2, 4] was “++”.

RMYFSTGAPQNFYDWFVQEWD [Peptide S365] showed a Kd ([1]; synthetic peptides, Table 7) of 10000 nM and an FFC [2, 4] of 0.

FYDWFERQLG [Peptide S392] showed a Kd [1, 5] of 3800 nM and an FFC [2, 6] of 0.

In the case of DYKDFYDAIDQLVRGSARAGGTRD [20E2 (D118)], the “Bndg Ratio IGF-1R/IR” value [3] is reported as 1.9.

Work on ESFYDWF [Peptide S403] yielded a Kd [1, 5] of over 20000 nM and an FFC [2, 6] of 0.

With VMDARDDPFYHKLSELVT [RP16] the “binding to IGF-1R compared with IR, in words” value (IGF-1R) was “higher affinity for IGF-1R than IR”, the IC50 (IGF-1R; read-out: TR-FRET rhIGF-1R IC50, vs. b-20E2) was 961 nM and the “potency / affinity at IR, in words” value [3] was “poor potency”. The “Bndg Ratio IGF-1R/IR” value [3] was 0.15 and the IC50 ([3]; vs. FITC-RP9, read-out: FP sIR-Fc IC50) was 6400 nM.

Compound SAKNFYDWFVKK [Peptide A6] has an IC50 (IGF-1R; competitor vs b-20E2 on rhIGF-1R) of 31000 nM.

CC(C)C[C@H](NC(=O)[C@H](CCC(N)=O)NC(=O)[C@H](CCCNC(=N)N)NC(=O)[C@H](CCC(=O)O)NC(=O)[C@H](Cc1ccccc1)NC(=O)[C@H](Cc1c[nH]c2ccccc12)NC(=O)[C@H](CC(=O)O)NC(=O)[C@H](Cc1ccc(O)cc1)NC(=O)[C@H](Cc1ccccc1)NC(=O)[C@H](CO)NC(=O)[C@H](CCC(=O)O)NC(=O)[C@H](CC(=O)O)NC(=O)[C@H](CC(C)C)NC(=O)[C@@H](N)CO)C(=O)NCC(=O)O [Peptide S387] was tested, and the Kd ([1]; synthetic peptides, Table 7) was 630 nM and the FFC [2, 4] was “+”.

GSLDESFYDWF [Peptide S398] gave a Kd [1, 5] of over 20000 nM and an FFC [2, 6] of 0.

In the case of CC(C)[C@H](NC(=O)[C@H](Cc1ccccc1)NC(=O)[C@H](Cc1c[nH]c2ccccc12)NC(=O)[C@H](CC(=O)O)NC(=O)[C@H](Cc1ccc(O)cc1)NC(=O)[C@H](Cc1ccccc1)NC(=O)[C@H](CC(N)=O)NC(=O)[C@H](CCC(=O)O)NC(=O)[C@H](Cc1c[nH]cn1)NC(=O)[C@H](Cc1ccccc1)NC(=O)CNC(=O)[C@@H](N)CSSC[C@H](N)C(=O)NCC(=O)N[C@@H](Cc1ccccc1)C(=O)N[C@@H](Cc1c[nH]cn1)C(=O)N[C@@H](CCC(=O)O)C(=O)N[C@@H](CC(N)=O)C(=O)N[C@@H](Cc1ccccc1)C(=O)N[C@@H](Cc1ccc(O)cc1)C(=O)N[C@@H](CC(=O)O)C(=O)N[C@@H](Cc1c[nH]c2ccccc12)C(=O)N[C@@H](Cc1ccccc1)C(=O)N[C@H](C(=O)N[C@@H](CCCNC(=N)N)C(=O)N[C@@H](CCC(N)=O)C(=O)N[C@H](C(=O)N[C@@H](CO)C(=O)N[C@@H](CCCCN)C(=O)N[C@@H](CCCCN)C(=O)O)C(C)C)C(C)C)C(=O)N[C@@H](CCCNC(=N)N)C(=O)N[C@@H](CCC(N)=O)C(=O)N[C@H](C(=O)N[C@@H](CO)C(=O)N[C@@H](CCCCN)C(=O)N[C@@H](CCCCN)C(=O)O)C(C)C [Peptide S170], the Kd ([1]; synthetic peptides, Table 7) is reported as 700 nM and the FFC [2, 4] is reported as “+++”.

CC(C)C[C@H](NC(=O)[C@H](CCC(N)=O)NC(=O)[C@H](CCCNC(=N)N)NC(=O)[C@H](CCC(=O)O)NC(=O)[C@H](Cc1ccccc1)NC(=O)[C@H](Cc1c[nH]c2ccccc12)NC(=O)[C@H](CC(=O)O)NC(=O)[C@H](Cc1ccc(O)cc1)NC(=O)[C@H](Cc1ccccc1)NC(=O)[C@H](CO)NC(=O)[C@H](CCC(=O)O)NC(=O)[C@H](CC(=O)O)NC(=O)[C@@H](N)CC(C)C)C(=O)NCC(=O)O [Peptide S388] was tested, and the Kd ([1]; synthetic peptides, Table 7) was 340 nM and the FFC [2, 4] was “+”.

WQGYAWLS [Peptide S316] showed a Kd ([1]; synthetic peptides, Table 7) of 7000 nM and an FFC [2, 4] of 0.

WFYDWFWE [Peptide S315] showed a Kd ([1]; synthetic peptides, Table 7) of 6800 nM and an FFC [2, 4] of 0.

For GSLDESFYDWFE [Peptide S397], the Kd [1, 5] was over 20000 nM and the FFC [2, 6] was 0.

CC(C)[C@H](NC(=O)[C@H](Cc1ccccc1)NC(=O)[C@H](Cc1c[nH]c2ccccc12)NC(=O)[C@H](CC(=O)O)NC(=O)[C@H](Cc1ccc(O)cc1)NC(=O)[C@H](Cc1ccccc1)NC(=O)[C@H](CC(N)=O)NC(=O)[C@H](CCC(=O)O)NC(=O)[C@H](Cc1c[nH]cn1)NC(=O)[C@@H](N)Cc1ccccc1)C(=O)N[C@@H](CCCNC(=N)N)C(=O)N[C@@H](CCC(N)=O)C(=O)N[C@H](C(=O)N[C@@H](CO)C(=O)N[C@@H](CCCCN)C(=O)N[C@@H](CCCCN)C(=O)NC[C@H](NC(=O)[C@H](CCCCN)NC(=O)[C@H](CCCCN)NC(=O)[C@H](CO)NC(=O)[C@@H](NC(=O)[C@H](CCC(N)=O)NC(=O)[C@H](CCCNC(=N)N)NC(=O)[C@@H](NC(=O)[C@H](Cc1ccccc1)NC(=O)[C@H](Cc1c[nH]c2ccccc12)NC(=O)[C@H](CC(=O)O)NC(=O)[C@H](Cc1ccc(O)cc1)NC(=O)[C@H](Cc1ccccc1)NC(=O)[C@H](CC(N)=O)NC(=O)[C@H](CCC(=O)O)NC(=O)[C@H](Cc1c[nH]cn1)NC(=O)[C@@H](N)Cc1ccccc1)C(C)C)C(C)C)C(=O)O)C(C)C [Peptide S128] gave a Kd ([1]; synthetic peptides, Table 7) of 1100 nM.

Compound “MADYKDDDDKWLDQEWAWVQCEVYGRGCPSAAAGAPVPYPDPLEPRPG (disulfide 21-28 (inferred)) [RB540]” has a Kd ([1]; MBP-fusion or recombinant peptide as listed) of about 100 nM.

PLRESRNFYDWFVQQLE [Peptide S366] showed a Kd ([1]; synthetic peptides, Table 7) of 370 nM and an FFC [2, 4] of 0.

With CC(C)C[C@H](NC(=O)[C@H](CCC(=O)O)NC(=O)[C@H](C)NC(=O)[C@@H](NC(=O)[C@H](Cc1ccccc1)NC(=O)[C@H](Cc1c[nH]c2ccccc12)NC(=O)[C@H](CC(=O)O)NC(=O)[C@H](Cc1ccc(O)cc1)NC(=O)[C@H](Cc1ccccc1)NC(=O)[C@H](CC(N)=O)NC(=O)[C@H](C)NC(=O)[C@H](CC(N)=O)NC(=O)[C@H](CCCNC(=N)N)NC(=O)[C@H](CCC(N)=O)NC(=O)[C@H](CC(C)C)NC(=O)[C@H](Cc1c[nH]c2ccccc12)NC(=O)[C@H](CC(=O)O)NC(=O)[C@@H](NC(=O)[C@@H](N)CCCNC(=N)N)C(C)C)C(C)C)C(=O)NCC(=O)O [Peptide S234] the FFC [2, 4] was “++”.

EHWNTVDPFYHWISELLRESGA [Peptide S344] gave an FFC [2, 4] of 0.

In the case of EFHENFYDWFVRQVSEE [Peptide S115], the FFC [2, 4] is reported as “+”.

For ESFYDWFE [Peptide S402], the Kd [1, 5] was over 20000 nM and the FFC [2, 6] was 0.

WPGYAWLS [Peptide S317] showed a Kd ([1]; synthetic peptides, Table 7) of over 20000 nM and an FFC [2, 4] of 0.

For FHENFYDWAVRQVSKK [Peptide S223], the Kd ([1]; synthetic peptides, Table 7) was over 20000 nM.

With CC(C)C[C@H](NC(=O)[C@H](CCC(N)=O)NC(=O)[C@H](CCCNC(=N)N)NC(=O)[C@H](CCC(=O)O)NC(=O)[C@H](Cc1ccccc1)NC(=O)[C@H](Cc1c[nH]c2ccccc12)NC(=O)[C@H](CC(=O)O)NC(=O)[C@H](Cc1ccc(O)cc1)NC(=O)[C@H](Cc1ccccc1)NC(=O)[C@H](CO)NC(=O)[C@H](CCC(=O)O)NC(=O)[C@H](CC(=O)O)NC(=O)[C@H](CC(C)C)NC(=O)[C@H](CO)NC(=O)CN)C(=O)NCC(=O)N[C@@H](CCCCN)C(=O)N[C@@H](CCCCN)C(=O)N[C@@H](CCCCNC(=O)[C@@H](N)CO)C(N)=O [Peptide S373] the Kd ([1]; synthetic peptides, Table 7) was 120 nM and the FFC [2, 4] was “+++”.
